Reference: the supplement of paper PMC3334620
In all, about 33,000 sequences were measured (“E-score (-0.5 to 0.5)”: median about -0.035, highest 2% from about 0.35 on). Some of the results follow.

target: T1, Pdr3 (UniProt P33200); test: PBM E-score (8-mer binding enrichment) (E-score (-0.5 to 0.5)); higher = stronger / more preferred TF binding; most listed sequences are background and not binding sites; details: protein concentration: 200 nM; construct: GST-full length
T1 sequence: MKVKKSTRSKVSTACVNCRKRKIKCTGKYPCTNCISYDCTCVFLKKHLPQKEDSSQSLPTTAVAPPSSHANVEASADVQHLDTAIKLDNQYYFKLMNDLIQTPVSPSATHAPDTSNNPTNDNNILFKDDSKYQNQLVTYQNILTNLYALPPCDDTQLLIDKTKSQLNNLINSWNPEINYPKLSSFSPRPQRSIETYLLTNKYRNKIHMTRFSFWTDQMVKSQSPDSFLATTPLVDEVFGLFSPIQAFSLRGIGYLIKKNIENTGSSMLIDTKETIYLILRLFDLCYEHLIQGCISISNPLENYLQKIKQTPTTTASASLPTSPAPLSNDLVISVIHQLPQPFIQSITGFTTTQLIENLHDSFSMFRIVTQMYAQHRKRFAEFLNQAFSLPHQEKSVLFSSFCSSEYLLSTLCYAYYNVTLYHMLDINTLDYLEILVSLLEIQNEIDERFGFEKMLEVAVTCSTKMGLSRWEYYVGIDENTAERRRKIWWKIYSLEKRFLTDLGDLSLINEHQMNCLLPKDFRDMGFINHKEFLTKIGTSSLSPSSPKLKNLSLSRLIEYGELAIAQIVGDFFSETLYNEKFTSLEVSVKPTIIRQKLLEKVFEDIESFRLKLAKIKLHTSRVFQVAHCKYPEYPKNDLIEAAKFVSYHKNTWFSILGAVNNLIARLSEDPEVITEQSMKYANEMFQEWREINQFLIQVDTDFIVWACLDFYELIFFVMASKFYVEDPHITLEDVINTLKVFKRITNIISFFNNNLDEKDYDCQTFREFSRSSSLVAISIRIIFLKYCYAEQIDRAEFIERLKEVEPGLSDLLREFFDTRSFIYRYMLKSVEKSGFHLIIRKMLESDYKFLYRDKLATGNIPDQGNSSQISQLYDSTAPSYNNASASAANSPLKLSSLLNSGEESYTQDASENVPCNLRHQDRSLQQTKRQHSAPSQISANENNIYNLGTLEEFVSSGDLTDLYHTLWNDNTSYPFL
Experimental: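 Universal 'all 10-mer' protein binding microarrays (Agilent AMADID 015681) probed with GST-tagged S. cerevisiae TFs (full-length or DBD) made by in vitro transcription/translation (PURExpress), about 100-200 nM. Bound TF was detected with fluorescent anti-GST. Each ungapped 8-mer (which stands for itself and its reverse complement) is scored by the PBM enrichment score (E-score), a modified Wilcoxon-Mann-Whitney statistic from -0.5 to +0.5, computed with the Universal PBM Analysis Suite. Scale: above 0.35 generally sequence-specific binding.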

Sequence	PBM E-score
CGACTTAA	-0.246
CGAACTGC	0.0677
AGAAACTG	-0.0776
CTCCTGCC	-0.0778
GGCAATAA	0.0401
TGTCGAAA	-0.0353
AGTAAGGG	0.168
ATCTAGTG	-0.157
CATCCGTA	0.282
CACACGTG	-0.101
GAGCACCA	-0.122
CCGCCAAG	0.0446
CGCCTGGC	-0.0374
ACAAGACG	0.0178
AGGGGTGG	0.00354
GATCAAGC	-0.00835
CAAGACTG	-0.284
ACAAATCT	-0.107
ATACCATG	-0.0983
AGGAATAA	0.0341
CCGATTTA	0.231
ACCTAAGA	-0.219
ATTGGAAG	-0.152
GCACAATA	-0.23

Sequence	PBM E-score
GATGCGAA	-0.0214
ATGTATCC	0.0403
ACCCTGCC	-0.0819
GGCTCGCA	0.0301
AAGGCCGA	0.221
ACCTACGC	-0.0495
AGCTGACC	0.0186
CGCGAACG	0.0855
CGGCCTCC	0.127
GAATAGGC	0.155
AAACGATC	-0.201
AGGGCACA	-0.16
GATCCTCA	0.138
AGCATGAT	-0.161
GGGATCCC	0.374
ATGCCAGC	-0.22
CAGTCTCA	-0.0367
AGTAACAT	0.0785
ATGGACGC	0.0671
AGACGTAG	-0.233
ATAAACCA	-0.187
ATCGCCTC	-0.0179
ACTGCCGG	0.325
AAAGTATC	0.108

Sequence	PBM E-score
GGGATGAA	0.137
AAAACTTC	-0.029
AGTGCTTC	-0.102
GAAGGTGA	0.136
ACTACTGA	-0.0877
AGCATTAC	-0.242
GAGGCATA	0.174
CATTTCAA	-0.105
GCTGGAAA	0.0777
TGCCTGAA	-0.305
AATCTCCG	0.322
AGGAATAG	-0.072
CTCGGCCC	0.0837
ACTCACAG	-0.148
CTCCGATC	0.212
CGTAGGCA	-0.214
AATGGCTC	0.00647
CCACAATA	-0.0242
CTAATTGA	-0.13
GCAATCGC	-0.0755
ATTGTCTA	0.102
ATCTGATA	-0.18
GCATACCC	0.0554
CTCTGCCA	-0.221

Sequence	PBM E-score
CTCGGACA	0.285
CCTAACTC	-0.137
CAAACGTC	-0.105
GCTCGTTA	-0.139
ATAACAAC	0.063
ATATTAAC	0.137
CGCGGTAG	0.282
GCTACAGA	-0.282
CCTGACCA	-0.0932
CAGACTTA	-0.389
GCGACAAA	0.0295
ACACTGAA	0.0405
ATCTCAAA	0.0575
GATATCAA	0.069
GAACTGCA	-0.0307
TGTGGCAA	0.0784
GACTCCAA	-0.212
CAAGACTA	-0.316
CATGGGAG	-0.124
GCGGTAAA	0.25
ACCTCCCC	0.0305
CCCGCCCG	0.372
